The record followed here is PMC6769256.

Chains of the proteins cited; added tags and fusions are not shown.
UniProt P11940: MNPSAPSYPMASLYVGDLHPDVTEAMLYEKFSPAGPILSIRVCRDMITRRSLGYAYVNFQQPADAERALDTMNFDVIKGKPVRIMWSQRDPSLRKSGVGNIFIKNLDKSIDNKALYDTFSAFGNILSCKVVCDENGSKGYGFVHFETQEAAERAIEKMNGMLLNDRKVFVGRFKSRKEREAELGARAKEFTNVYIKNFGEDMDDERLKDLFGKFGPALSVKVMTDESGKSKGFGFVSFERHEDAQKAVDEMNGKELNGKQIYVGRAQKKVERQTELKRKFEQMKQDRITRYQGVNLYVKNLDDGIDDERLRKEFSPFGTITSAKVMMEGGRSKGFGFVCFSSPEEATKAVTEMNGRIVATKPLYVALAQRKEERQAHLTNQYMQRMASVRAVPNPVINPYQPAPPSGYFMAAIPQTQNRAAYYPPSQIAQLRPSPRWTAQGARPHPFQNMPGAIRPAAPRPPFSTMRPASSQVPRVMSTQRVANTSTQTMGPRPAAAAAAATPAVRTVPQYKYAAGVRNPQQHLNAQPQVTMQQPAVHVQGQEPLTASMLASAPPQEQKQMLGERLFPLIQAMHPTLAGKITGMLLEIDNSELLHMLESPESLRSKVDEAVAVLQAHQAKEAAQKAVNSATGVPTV

Assay [1] deals with GFP-tagged Hs HELZ (helicase with zinc-finger), full-length (human) (UniProt P42694). The experiment in a line: co-IP; GFP immunoprecipitation from HEK293T cells transfected with GFP-tagged HELZ (full-length, fragments or F1107V); endogenous NOT1, NOT3, PABPC1 detected by Western blot; lysates treated with RNase A before IP. (In western blotting, separated proteins are transferred to a membrane and probed.)

Assay [2] has as its target GFP-tagged Hs HELZ F1107V mutant (human) (UniProt P42694). The description is as above.
Assay [3] has as its target T1, GFP-tagged Hs HELZ-C (residues P1051-K1942) (human) (UniProt P42694).
T1 sequence: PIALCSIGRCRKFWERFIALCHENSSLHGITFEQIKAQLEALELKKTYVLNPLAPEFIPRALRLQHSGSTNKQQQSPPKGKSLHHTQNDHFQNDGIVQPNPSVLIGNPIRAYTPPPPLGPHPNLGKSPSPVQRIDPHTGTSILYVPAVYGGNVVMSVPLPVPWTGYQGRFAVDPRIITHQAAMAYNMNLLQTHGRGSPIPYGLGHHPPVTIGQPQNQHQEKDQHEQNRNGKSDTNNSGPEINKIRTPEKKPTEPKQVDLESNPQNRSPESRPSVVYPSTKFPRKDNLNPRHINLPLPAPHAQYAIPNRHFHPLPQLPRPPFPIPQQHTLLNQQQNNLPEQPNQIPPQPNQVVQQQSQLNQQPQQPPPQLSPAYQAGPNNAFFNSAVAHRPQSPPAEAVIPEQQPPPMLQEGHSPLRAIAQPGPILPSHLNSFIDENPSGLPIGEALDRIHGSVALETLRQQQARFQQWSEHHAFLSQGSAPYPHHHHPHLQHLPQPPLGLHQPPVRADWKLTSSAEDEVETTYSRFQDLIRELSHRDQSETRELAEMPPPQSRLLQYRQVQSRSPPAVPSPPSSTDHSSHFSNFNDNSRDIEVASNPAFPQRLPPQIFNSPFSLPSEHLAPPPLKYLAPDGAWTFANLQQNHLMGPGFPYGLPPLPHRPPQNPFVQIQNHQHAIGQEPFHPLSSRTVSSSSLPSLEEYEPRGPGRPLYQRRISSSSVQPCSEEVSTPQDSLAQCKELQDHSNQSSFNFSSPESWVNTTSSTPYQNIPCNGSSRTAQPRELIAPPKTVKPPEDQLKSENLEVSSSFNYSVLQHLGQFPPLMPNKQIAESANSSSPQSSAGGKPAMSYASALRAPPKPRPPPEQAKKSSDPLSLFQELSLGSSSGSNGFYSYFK
The description is as above.

For assay [4], the target named is T2, GFP-tagged Hs HELZ-N (residues M1-D1050) (human) (UniProt P42694).
T2 sequence: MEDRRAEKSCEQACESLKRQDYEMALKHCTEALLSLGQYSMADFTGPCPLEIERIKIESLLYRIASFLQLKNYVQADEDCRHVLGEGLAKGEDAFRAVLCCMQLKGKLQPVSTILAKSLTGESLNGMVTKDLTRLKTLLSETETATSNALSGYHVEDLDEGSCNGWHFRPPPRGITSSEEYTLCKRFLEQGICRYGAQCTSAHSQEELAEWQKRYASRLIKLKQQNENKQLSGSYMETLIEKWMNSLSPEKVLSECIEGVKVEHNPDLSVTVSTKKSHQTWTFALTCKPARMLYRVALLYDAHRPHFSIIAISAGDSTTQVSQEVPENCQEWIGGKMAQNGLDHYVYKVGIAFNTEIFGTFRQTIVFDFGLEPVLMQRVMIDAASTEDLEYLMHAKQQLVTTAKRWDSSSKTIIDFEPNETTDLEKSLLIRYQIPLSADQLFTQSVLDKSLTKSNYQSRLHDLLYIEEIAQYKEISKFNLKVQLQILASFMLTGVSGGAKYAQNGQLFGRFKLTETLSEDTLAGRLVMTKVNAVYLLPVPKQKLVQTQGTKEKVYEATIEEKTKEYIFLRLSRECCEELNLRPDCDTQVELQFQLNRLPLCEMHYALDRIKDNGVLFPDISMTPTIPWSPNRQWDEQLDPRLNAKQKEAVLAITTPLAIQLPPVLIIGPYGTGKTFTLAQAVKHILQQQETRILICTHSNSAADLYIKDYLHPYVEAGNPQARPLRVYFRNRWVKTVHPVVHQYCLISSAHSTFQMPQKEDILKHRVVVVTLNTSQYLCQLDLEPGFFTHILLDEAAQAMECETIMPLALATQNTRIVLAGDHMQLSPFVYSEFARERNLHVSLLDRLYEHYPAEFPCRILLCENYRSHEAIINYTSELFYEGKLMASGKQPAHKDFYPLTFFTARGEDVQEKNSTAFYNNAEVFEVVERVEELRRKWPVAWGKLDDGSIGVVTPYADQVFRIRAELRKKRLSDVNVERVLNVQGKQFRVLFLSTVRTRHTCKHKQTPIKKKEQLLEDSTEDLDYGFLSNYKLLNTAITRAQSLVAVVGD
The assay is described as above.

In assay [5] the target is T3, GFP-tagged Hs HELZ (helicase with zinc-finger), full-length (human), P42694.
T3 chain: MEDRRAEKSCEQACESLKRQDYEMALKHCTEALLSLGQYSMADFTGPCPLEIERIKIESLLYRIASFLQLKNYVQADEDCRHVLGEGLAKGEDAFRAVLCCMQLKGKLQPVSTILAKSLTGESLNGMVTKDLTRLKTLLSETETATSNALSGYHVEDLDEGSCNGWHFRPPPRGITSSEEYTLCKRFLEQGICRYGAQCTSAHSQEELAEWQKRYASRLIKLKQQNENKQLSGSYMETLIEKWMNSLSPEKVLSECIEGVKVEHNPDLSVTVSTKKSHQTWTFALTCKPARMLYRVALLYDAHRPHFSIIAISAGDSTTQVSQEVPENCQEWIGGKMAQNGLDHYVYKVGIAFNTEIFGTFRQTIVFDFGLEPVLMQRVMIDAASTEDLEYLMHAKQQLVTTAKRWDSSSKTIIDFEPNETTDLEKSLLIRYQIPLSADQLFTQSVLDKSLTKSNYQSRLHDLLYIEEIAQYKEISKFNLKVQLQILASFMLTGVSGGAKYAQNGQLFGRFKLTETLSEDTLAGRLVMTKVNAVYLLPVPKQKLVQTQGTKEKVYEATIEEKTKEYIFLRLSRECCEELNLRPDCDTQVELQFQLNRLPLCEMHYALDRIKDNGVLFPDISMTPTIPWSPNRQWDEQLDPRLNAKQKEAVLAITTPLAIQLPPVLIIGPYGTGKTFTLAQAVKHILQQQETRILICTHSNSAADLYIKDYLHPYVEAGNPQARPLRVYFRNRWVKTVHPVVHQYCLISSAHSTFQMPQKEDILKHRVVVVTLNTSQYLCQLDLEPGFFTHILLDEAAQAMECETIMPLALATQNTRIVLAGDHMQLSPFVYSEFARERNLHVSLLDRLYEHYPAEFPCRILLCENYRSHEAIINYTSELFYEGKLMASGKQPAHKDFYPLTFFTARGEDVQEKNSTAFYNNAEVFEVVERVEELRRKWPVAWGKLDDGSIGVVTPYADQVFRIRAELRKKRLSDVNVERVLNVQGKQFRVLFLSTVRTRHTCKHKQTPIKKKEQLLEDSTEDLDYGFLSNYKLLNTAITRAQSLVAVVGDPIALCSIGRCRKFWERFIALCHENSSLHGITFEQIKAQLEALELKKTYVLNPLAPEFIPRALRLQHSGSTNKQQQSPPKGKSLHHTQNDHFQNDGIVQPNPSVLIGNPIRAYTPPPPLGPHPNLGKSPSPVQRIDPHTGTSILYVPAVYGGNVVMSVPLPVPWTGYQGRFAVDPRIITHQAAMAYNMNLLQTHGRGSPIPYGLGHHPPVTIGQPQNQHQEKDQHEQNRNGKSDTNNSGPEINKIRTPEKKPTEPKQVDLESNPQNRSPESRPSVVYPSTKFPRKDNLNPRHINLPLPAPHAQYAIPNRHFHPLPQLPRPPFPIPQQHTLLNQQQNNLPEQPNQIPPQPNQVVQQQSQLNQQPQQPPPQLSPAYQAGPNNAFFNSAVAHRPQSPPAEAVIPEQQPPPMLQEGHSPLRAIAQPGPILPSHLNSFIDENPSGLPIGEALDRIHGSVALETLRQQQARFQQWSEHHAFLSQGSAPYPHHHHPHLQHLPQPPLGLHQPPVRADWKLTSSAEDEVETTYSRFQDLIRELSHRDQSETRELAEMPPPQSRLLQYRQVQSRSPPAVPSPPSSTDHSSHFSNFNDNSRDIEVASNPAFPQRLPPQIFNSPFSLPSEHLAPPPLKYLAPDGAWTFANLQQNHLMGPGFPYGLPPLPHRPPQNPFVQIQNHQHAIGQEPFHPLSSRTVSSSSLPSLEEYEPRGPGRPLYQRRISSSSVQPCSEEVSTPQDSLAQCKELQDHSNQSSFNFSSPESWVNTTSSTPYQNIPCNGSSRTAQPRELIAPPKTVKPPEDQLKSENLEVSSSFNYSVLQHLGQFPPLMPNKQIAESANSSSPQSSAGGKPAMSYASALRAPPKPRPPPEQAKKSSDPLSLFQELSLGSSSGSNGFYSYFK
The experiment in a line: co-IP; GFP immunoprecipitation from HEK293T cells co-transfected with GFP-Hs HELZ (bait) and an HA-tagged protein; lysates treated with RNase A before IP; Western blot. Conditions: remark: other sources report otherwise.

No constants are given. Whether binding was seen depends on the method and setting. Binding seen in cells or lysates may run through a third protein. Some entries that bind do so weakly or less than the wild type. For some assays here: Sequences can lack the tags named with a protein.

Consider “endogenous cytoplasmic polyadenylate-binding protein 1 (PABPC1) (from UniProt P11940 1-636)”, for which the binding entry in assay [1] is reported as “binds”; in assay [2], “no binding”; in assay [3] it was “binds”; in assay [4], “no binding”.

B1: HA-tagged Hs DDX6, P26196 1-483 (protein)
chain: MSTARTENPVIMGLSSQNGQLRGPVKPTGGPGGGGTQTQQQMNQLKNTNTINNGTQQQAQSMTTTIKPGDDWKKTLKLPPKDLRIKTSDVTSTKGNEFEDYCLKRELLMGIFEMGWEKPSPIQEESIPIALSGRDILARAKNGTGKSGAYLIPLLERLDLKKDNIQAMVIVPTRELALQVSQICIQVSKHMGGAKVMATTGGTNLRDDIMRLDDTVHVVIATPGRILDLIKKGVAKVDHVQMIVLDEADKLLSQDFVQIMEDIILTLPKNRQILLYSATFPLSVQKFMNSHLQKPYEINLMEELTLKGVTQYYAYVTERQKVHCLNTLFSRLQINQSIIFCNSSQRVELLAKKISQLGYSCFYIHAKMRQEHRNRVFHDFRNGLCRNLVCTDLFTRGIDIQAVNVVINFDFPKLAETYLHRIGRSGRFGHLGLAINLITYDDRFNLKSIEEQLGTEIKPIPSNIDKSLYVAEYHSEPVEDEKP
As for B1, in assay [5], the binding entry was “no binding”.
